# Source: PubChem BioAssay AID488969 (Vanderbilt High Throughput Screening Facility, 2010)
# The full ranking holds about 110,000 compounds; the median of “z-score” is about -0.1, and the highest 2% start at about 2. This is one part of the list. The source made the active and inactive calls.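 How the source made its calls: active means z-score in the third read window above 3 or below -3; inactive means the rest.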
# Biological target: Metabotropic glutamate receptor 8 (Rattus norvegicus) (UniProt P70579)
# Assay: rat mGluR8 modulators via GIRK flux, primary screen, cell-based, thallium flux, HTS (AID 488969)
# Details: HEK293 rat mGluR8, GIRK (G protein-gated inwardly rectifying potassium channel) thallium flux, FluoZin2; at 10 µM; stronger effect = higher value; submaximal glutamate (EC20) added with thallium
# Sequence of UniProt P70579 (P70579 whole entry, looked up): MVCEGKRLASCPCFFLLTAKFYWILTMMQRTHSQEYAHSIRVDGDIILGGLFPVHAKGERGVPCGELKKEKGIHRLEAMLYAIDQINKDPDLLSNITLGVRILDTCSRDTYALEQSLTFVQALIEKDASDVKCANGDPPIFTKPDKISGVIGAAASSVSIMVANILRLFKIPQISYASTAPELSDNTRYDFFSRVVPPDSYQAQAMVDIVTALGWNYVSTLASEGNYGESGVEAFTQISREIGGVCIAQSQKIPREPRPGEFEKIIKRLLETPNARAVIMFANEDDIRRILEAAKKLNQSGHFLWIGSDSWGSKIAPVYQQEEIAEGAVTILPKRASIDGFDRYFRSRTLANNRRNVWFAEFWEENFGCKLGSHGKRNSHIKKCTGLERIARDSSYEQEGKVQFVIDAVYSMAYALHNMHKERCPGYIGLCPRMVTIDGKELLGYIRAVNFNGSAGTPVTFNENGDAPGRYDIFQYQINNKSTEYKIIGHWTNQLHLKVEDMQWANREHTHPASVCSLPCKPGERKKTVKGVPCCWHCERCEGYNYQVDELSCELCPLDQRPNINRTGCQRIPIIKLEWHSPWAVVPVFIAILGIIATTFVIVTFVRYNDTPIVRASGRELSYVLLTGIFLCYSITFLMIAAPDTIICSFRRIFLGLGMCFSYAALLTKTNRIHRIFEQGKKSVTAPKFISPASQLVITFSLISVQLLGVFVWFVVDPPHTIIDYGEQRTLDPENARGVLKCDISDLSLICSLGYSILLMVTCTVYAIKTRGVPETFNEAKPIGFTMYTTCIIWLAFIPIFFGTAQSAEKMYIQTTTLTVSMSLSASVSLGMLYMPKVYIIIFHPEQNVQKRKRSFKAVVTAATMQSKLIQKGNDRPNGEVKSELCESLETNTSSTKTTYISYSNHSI
row,SMILES,z-score
1,CCOC(=O)C1=C(c2ccccc2)Nc2c(c(=O)n(C)c(=O)n2C)C1c1ccc(O)c(OC)c1 (configuration not stated),0.108
2,Cc1ccc(NC(=O)CC(O)(C(F)(F)F)C(F)(F)F)cc1,-0.185
3,CCn1c(SCC(=O)Nc2ccc(S(=O)(=O)Nc3onc(C)c3C)cc2)nnc1-c1ccccc1,0.092
4,O=C(O)c1cn(-c2ccccc2)nc1-c1cccnc1,-0.52
5,CSc1cccc(NC(=O)C(C)Sc2ccc(C)cc2)c1 (configuration not stated),0.067
6,O=C(COc1ncnc2sccc12)N1CCN(S(=O)(=O)c2ccc(Cl)cc2)CC1,-0.0233
7,COC(=O)Cc1c(C)nc2nc(NCc3c(F)cccc3Cl)[nH]n2c1=O,-0.831
8,Cc1nnc(SCCN2C(=O)c3ccccc3C2=O)[nH]c1=O,0.0812
9,CCCCNC(=S)N/N=C/c1ccc(C)s1,1.81
10,Cc1ccc(C(NC(=O)N2CCCCC2)=C(Cl)Cl)cc1F,0.0818
11,CC(=O)N1CCN2C(=O)C1CCCC(=O)c1cc(C(C)C)ccc12 (configuration not stated),0.766
12,CCOc1cccc(SCc2noc(C(=O)NCC3CCCO3)c2C(=O)O)c1 (configuration not stated),-0.0276
13,C=CCN(CC=C)CC(O)CN(c1cc([N+](=O)[O-])ccc1OC)S(=O)(=O)c1ccccc1 (configuration not stated),-0.218
14,O=C(Cn1c(=O)oc2ccccc21)Nc1ccc2c(c1)OCCO2,0.369
15,O=C1c2ccccc2C(Nc2ccc3c(c2)OCCO3)N1c1ccc(Cl)cn1 (configuration not stated),-0.263
16,COc1cc(/C=N/N2C(=O)c3ccccc3C2=O)ccc1O,-0.113
17,Cn1nnc(NC(=S)NC(=O)c2cccs2)n1,-0.0472
18,CCN=C1S/C(=C\c2ccc(OCC)c(OC)c2)C(=O)N1CC,1.73
19,CC1=CC2(C#N)C3(N=C(N)C2(C#N)C(c2ccccc2)N1)OCCO3 (configuration not stated),-0.201
20,Cc1cc(NC(=O)c2ccc(Cl)cc2)n(CCOC(=O)c2ccc(Cl)cc2)n1,-0.266
21,Cc1ccccc1NC(=S)N(CCN(C)C)C(C)c1ccccn1 (configuration not stated),-0.425
22,CCSc1nnc(NC(=O)c2ccc(C)cc2)s1,0.629
23,CCOc1ccc(N2C(=O)CC(NCCc3ccncc3)C2=O)cc1 (configuration not stated),-0.437

row,SMILES,z-score
1,CCC(CC)C(=O)Nc1ccc(C)c(O)c1,0.0835
2,Cc1ccc2[nH]c(=O)c(-c3nc4ccccn4c3NCc3ccco3)cc2c1,-0.189
3,CCOC(=O)c1cnc(SC)nc1N,-0.0813
4,O=C(O)/C=C/c1cccc(NS(=O)(=O)c2ccccc2)c1,0.00724
5,CS(=O)(=O)N(CC(=O)NCC1CCCO1)c1cc(Cl)cc(Cl)c1 (configuration not stated),-0.503
6,O=C(NCCCN1CCN(C2CCCCC2)CC1)Nc1ccccc1C(F)(F)F,-0.315
7,CC(C)(C)c1ccccc1OCCN1CCCC1,-0.516
8,O=C1c2ccccc2C(=O)N1OCCOCCOCCBr,-1.21
9,CCCCCOc1ccc2oc(=O)c3c(c2c1)CCCN3C(=O)CN1CCCC(C(=O)OCC)C1 (configuration not stated),0.559
10,Cc1ccc(Nc2nnc(SCn3nnc4ccccc4c3=O)s2)cc1,-0.0787
11,Clc1ccc(-c2nnc(-c3ccc(Br)cc3)c(N3CCSCC3)n2)cc1,-0.0652
12,COC(=O)c1ccc(C(C(=O)NCc2ccccc2)N(Cc2cccs2)C(=O)c2cnccn2)cc1 (configuration not stated),-0.245
13,Cc1cccc(NC(=O)Nc2cc(C)on2)c1,-0.376
14,COC(=O)c1cc(CNC(=O)c2ccc(O)c(Cl)c2)ccc1OC,0.551
15,Cc1ccc(OCCC(=O)Nc2ccc(F)c(Cl)c2)cc1,0.781
16,CC1(CCc2ccccc2)NC(=O)N(Cc2nnc(-c3ccccc3Br)o2)C1=O (configuration not stated),-0.897
17,N/C(=N\OC(=O)C(c1ccccc1)c1ccccc1)c1ccccn1,-0.438
18,C#CCSc1nnc(-c2cc3c(C(F)(F)F)nn(C)c3s2)n1C,-0.169
19,CC(C)Sc1oc(-c2ccco2)nc1S(=O)(=O)c1ccccc1,0.102
20,CN(C)c1ccc(/C=N/NC(=O)CN(c2ccccc2Cl)S(C)(=O)=O)cc1Br,-0.749
21,COC(=O)c1cccc(-n2nnnc2SCC(=O)Nc2cc(C)on2)c1,-0.135
22,Cc1ccc(NC(=S)NN(C)c2cc(C)nc(C)n2)cc1,-0.0375
23,Cc1csc(Sc2ccc(C(=O)OCC(=O)Nc3ccc(F)cc3[N+](=O)[O-])cc2[N+](=O)[O-])n1,-0.0883

row,SMILES,z-score
1,Cc1ccccc1-c1noc(C23CC4CC(CC(C4)C2)C3)n1,-0.0538
2,CCCCCCCNC1=CC(=O)CC(c2ccccc2)C1 (configuration not stated),-0.474
3,Brc1ccc2[nH]c3nc(SCCN4CCOCC4)nnc3c2c1,0.137
4,Cc1[nH]nc2ncc(C(=O)c3ccccc3O)cc12,0.534
5,C=CCn1c(SCC(=O)NCc2ccccc2)nnc1C1CCCCC1,0.0533
6,O=C(Oc1ccc(Cl)c2cccnc12)N1CCOCC1,-1.2
7,Cc1nc2nc(C)c(CCC(=O)O)c(C)n2n1,0.347
8,Cc1ccc(C(=O)CN(C(=O)c2ccc(Cl)c(Cl)c2)N2C(=O)C3C4C=CC(C4)C3C2=O)cc1 (configuration not stated),0.233
9,c1nc(N2CCC3(CC2)OCCO3)c2c3c(sc2n1)CCCC3,-1.04
10,COc1ccc(-n2c(Cn3c(=O)sc4ccccc43)nnc2SCC(N)=O)cc1,0.0744
11,CCC(C)[C@H](NC(=O)Nc1ccc(Oc2ccccc2)cc1)C(=O)O (some centres not stated),-0.551
12,O=C(Cc1ccc(Br)cc1)N1CCN(c2ccc(F)cc2)CC1,-0.157
13,Cc1ccccc1-n1nnnc1SCc1ncc(-c2ccccc2)o1,-0.396
14,Cn1c(=O)[nH]c(=O)c2c1nc(N1CCCCCC1)n2CCN1CCCCCC1,0.145
15,Cc1csc(SCC(=O)Nc2sc3c(c2C#N)CCC3)n1,-0.735
16,O=C(NCCCCNC(=O)c1ccc(Cl)s1)c1ccc(Cl)s1,-0.423
17,O=C(CN1CCN(CC(=O)Nc2ccc(OCc3ccccc3)cc2)CC1)Nc1ccc(F)cc1,-0.194
18,COCCN1C(=O)c2ccccc2C(C(=O)Nc2ccc3c(c2)OCCO3)C1c1ccc(F)cc1 (configuration not stated),-0.449
19,O=C(CN(CC1CCCO1)C(=O)CCC(=O)Nc1nccs1)NCc1ccccc1 (configuration not stated),0.199
20,Cc1ccc(C(=O)N/N=C/c2cc(C)n(-c3ccc(Br)cc3)c2C)cc1[N+](=O)[O-],-0.519
21,CCOC(=O)C1=NN(c2ccccc2)C(=O)/C1=C\c1ccc(N(C)C)cc1,-1.66
22,CCN1/C(=C/c2cc[n+](C)cc2)C=Cc2cc(C)ccc21,-0.153
23,CCCCNC(=O)NC1(C(F)(F)F)Oc2ccccc2O1,-0.407

row,SMILES,z-score
1,Cc1ccc(CNc2oc(-c3ccco3)nc2C#N)cc1,-0.32
2,C=CCN(CC(=O)NCc1ccccc1)C(=O)c1csnn1,-0.525
3,CCc1ccc(Nc2nnc(SCC(=O)N(C)CC(=O)Nc3ccccc3CC)s2)cc1,-0.439
4,O=C1CCC(/C=C/c2ccccc2)=NN1Cc1ccc(Cl)c(Cl)c1,active: 13.4
5,Cc1cc(C)cc(OCC(=O)OCC(=O)NCc2ccco2)c1,-0.631
6,COc1ccc(NC(=S)NCCN2CCOCC2)c(OC)c1,0.0468
7,Clc1ccc(-c2nnc(CNC3CC3)o2)cc1,0.504
8,CCc1c(C)c2c(C)nn(-c3ccccc3)c2oc1=O,-0.423
9,COc1ccc(Cn2ccnc2)cc1[N+](=O)[O-],-0.267
10,COc1ccc(C2CC(=O)C3=C(C2)Nc2ccccc2N(C(=O)C2CC2)C3c2cccnc2)cc1OC (configuration not stated),-0.607
11,OCc1ccccc1NC(=S)Nc1cccnc1,0.0937
12,CC(C)(C)C(=O)CC1(O)C(=O)N(Cc2ccc(Cl)cc2)c2ccccc21 (configuration not stated),-0.062
13,O=C(NCc1ccc(F)cc1)c1cnc2n(c1=O)CCS2,2.18
14,S=C(NCCc1ccccc1)N/N=C/c1c(Cl)cccc1Cl,0.353
15,Cc1occc1C(=O)N1CCN(C(c2ccccc2)c2ccccc2)CC1,-0.0444
16,CCC(Sc1nc(-c2ccccc2)cc(=O)[nH]1)C(=O)O (configuration not stated),0.104
17,CCOc1ccc(CC(=O)Nc2c(C(=O)Nc3ccccc3)oc3ccccc23)cc1OCC,-0.0815
18,Cc1oc2cc3c(C(=O)N4CCCCC4)c(C)oc3cc2c1C(=O)N1CCCCC1,0.496
19,C=CCSc1nccc(=O)[nH]1,-0.329
20,CCCC(C)NCC(=O)Nc1ccccc1-c1ccccc1 (configuration not stated),0.0667
21,COc1ccccc1N1CCN(CC(O)COc2ccc3c(C)cc(=O)oc3c2)CC1 (configuration not stated),-0.382
22,COc1cc2c3c(c1OC)C1(C=CC(=O)C=C1)CC3N(C(=O)c1ccccc1)CC2 (configuration not stated),-0.202
23,COc1cccc(NC(=O)CSc2nc(N)cc(N)n2)c1,active: 3.37

row,SMILES,z-score
1,O=C(NN=C1CCN(Cc2ccccc2)CC1)c1ccccc1,-0.391
2,Cc1ccc(NC(=O)CSc2n[nH]c(C)c2[N+](=O)[O-])cc1C,-0.251
3,CC(C)(C)c1cc(=O)n2c(nc3ccccc32)[nH]1,-0.318
4,CCOC(=O)Cc1csc(N/C(=N/S(=O)(=O)c2cc(Br)ccc2OCC)c2ccccc2)n1,-0.276
5,Cc1ccc(Cn2c(SCCN3CCCCC3)nc3c2c(=O)[nH]c(=O)n3C)cc1,-0.062
6,Cc1ccc(C)n1NC(=O)c1cccs1,-0.0904
7,Cc1cccc2cc3c(N)c(C(=O)Nc4ccc(N5CCOCC5)cc4)sc3nc12,-0.216
8,O=[N+]([O-])c1ccc(NCc2ccccn2)nc1,-0.134
9,CCC(CC)c1nnc(NC(=O)c2c(C)nn(Cc3ccccc3Cl)c2C)s1,-1.84
10,O=C(NCc1ccccn1)c1cc(-c2ccccc2Cl)on1,0.636
11,CSc1nc2ccc(NC(=O)c3cc4ccccc4o3)cc2s1,-0.275
12,CCN(CC)C(=S)SCC(=O)Nc1nc(-c2ccccc2)c(-c2ccccc2)o1,-0.0668
13,CC(C)(C)NC(=O)CN(C(=O)CSc1nnc(COc2ccccc2)o1)c1cccc(F)c1,-0.205
14,CNCCOc1nc(N2CCOCC2)nc(C)c1[N+](=O)[O-],-0.132
15,CN(C)CCn1c(C(=O)O)cc2ccccc21,-0.0606
16,N#CC12CCCCC1CC1CCCCC1(C#N)N2CCO (configuration not stated),0.34
17,CCC(=O)Nc1ccc(-c2nnc(SCc3ccc(C(=O)Nc4nccs4)cc3)n2CC)cc1,0.429
18,CCc1c(C)c2c(C)nn(-c3ccccc3)c2[nH]c1=O,-0.132
19,Cc1ccc(NC2CC(=O)N(c3ccc(N4CCCCC4)cc3)C2=O)cc1 (configuration not stated),-0.166
20,CCOC(=O)CSc1nc2c(c(=O)n(C)c(=O)n2C)n1Cc1ccccc1F,-0.721
